This is an account of results in paper PMC7819943, “Rice protein-binding microarrays: a tool to detect cis-acting elements near promoter regions in rice”.

The other results are listed elsewhere or left out.

The assay deals with T1, OsWOX13 (Oryza sativa, UniProt Q5QMM3 1-267).
T1 sequence: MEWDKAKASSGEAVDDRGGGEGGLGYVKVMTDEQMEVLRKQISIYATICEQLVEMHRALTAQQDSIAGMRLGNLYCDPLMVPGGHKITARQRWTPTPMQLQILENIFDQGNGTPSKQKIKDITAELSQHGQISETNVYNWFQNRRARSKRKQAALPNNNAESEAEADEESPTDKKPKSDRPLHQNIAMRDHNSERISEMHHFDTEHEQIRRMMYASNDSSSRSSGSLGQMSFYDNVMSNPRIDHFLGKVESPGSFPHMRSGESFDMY
Nature of the assay: protein-binding microarray (RPBM); PBS, 2% BSA, 51.3 ng/ul salmon testes DNA, 50 uM zinc acetate, 200 nM TF, 25 C, 1 h; high values mean tight binding. Conditions: protein: recombinant; tags: N-terminal polyhistidine and DsRed monomer fusion (pET32a); label: CyDye5-dUTP incorporated in the synthesized complementary strand; 3' TTTTT single-stranded linker to array surface; dsDNA, one strand shown. A digest of the protocol:
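Binding signal is reported as fluorescence intensity per feature (arbitrary units) from an Axon 4000B scanner. Incubation used 200 nM of each Ni–NTA-purified, N-terminally polyhistidine- and DsRed-fused transcription factor from E. coli BL21-CodonPlus on a double-stranded custom Agilent array for 1 h at 25 °C, with 50 µM zinc acetate in the buffer, followed by washing.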
Take “CTTCTGTTTACTAATTGGATTCTCTGTGTGAACTCTTACGCGGAGTCACCTAGTGCAG”: the binding signal is 13500 fluorescence intensity (a.u.). The same measure for “AATATTTCCTTAATTATCATCATTATCCTAAACTAATCAACGGAGTCACCTAGTGCAG”: 4750 fluorescence intensity (a.u.); for “ATACCATGATTTTGATAATGTGATGTTACAGTAAACTTTTCGGAGTCACCTAGTGCAG”: 16300 fluorescence intensity (a.u.); for “TAAATTTGATTCCATTTCCGTTGCCTGTTCATTTCGTCGACGGAGTCACCTAGTGCAG”: 6090 fluorescence intensity (a.u.).

As for “CATGATTACTTGGGTTATCAATATGACATTTCAAGGTGAACGGAGTCACCTAGTGCAG”, the binding signal is 33300 fluorescence intensity (a.u.).

In the case of “CGAGATTGAGGTAGTAGTCCGCCGCGGATCTCAGCATATCCGGAGTCACCTAGTGCAG”, the binding signal is 5830 fluorescence intensity (a.u.). “ATGCATTATCAATCATTTGTGCTTGACGCGTCGCTGATTCCGGAGTCACCTAGTGCAG”: the binding signal was 38500 fluorescence intensity (a.u.). In the case of “GGTAATTTATGCTCGCGGGCATACCCGTTACTACATGATGCGGAGTCACCTAGTGCAG”, the binding signal is 10200 fluorescence intensity (a.u.). In the case of “CCATCCATTTTCATTAATGAACTAATCTCCAACTAAAATCCGGAGTCACCTAGTGCAG”, the binding signal is 11500 fluorescence intensity (a.u.). For the sequence “TCCGGAAGATTGGACCGATATATCACCTATCACTAAAAGACGGAGTCACCTAGTGCAG”, the binding signal is 9920 fluorescence intensity (a.u.). As to “ACTGCTGTGTGTGGTCCGTAATTGATCAAAGAAAATATCACGGAGTCACCTAGTGCAG”, the binding signal is 4950 fluorescence intensity (a.u.). As for “AGCTAATTCAGTCTCTGTTGATAGCTTCGTTGCCCAAGAGCGGAGTCACCTAGTGCAG”, the figure is 5030 fluorescence intensity (a.u.). Consider “TCTGATGAACCAAAGAATTGATGAAGTCAACCATATCAGCCGGAGTCACCTAGTGCAG”, for which the binding signal was 9810 fluorescence intensity (a.u.).

Take “TTTAATCTTCTTATTTGACTGATATGTGGACCCACATATTCGGAGTCACCTAGTGCAG”: the binding signal is 5940 fluorescence intensity (a.u.). As for “CATCCATACATATAATTAGTTAGGTATCTAATCATGGATTCGGAGTCACCTAGTGCAG”, the figure is 3250 fluorescence intensity (a.u.); as for “TTGATTGGTCACCATCAGCATAGCTACATGTAAGGAGCTACGGAGTCACCTAGTGCAG”, 29200 fluorescence intensity (a.u.).

For the sequence “TCTCTTGATTTGTTCGTAATGTGATACTAATAGCAGTTTCCGGAGTCACCTAGTGCAG”, the binding signal was 31600 fluorescence intensity (a.u.).

For “TTTAATTGATTATGTATGATTTCTGGATGATTACTCTTTTCGGAGTCACCTAGTGCAG”, the binding signal is 43900 fluorescence intensity (a.u.). The same measure for “GAAATACCAATTTAGTTAATAGATTGTTTCTCCAATACCTCGGAGTCACCTAGTGCAG”: 21800 fluorescence intensity (a.u.); for “CCATGCCAATCACCAACTGATTCTTATCTATTTTATCAAGCGGAGTCACCTAGTGCAG”: 26800 fluorescence intensity (a.u.). As to “ATGATCTTGCCGTTAATCAATACATGCATTGGCTTGCAGCCGGAGTCACCTAGTGCAG”, the binding signal was 3380 fluorescence intensity (a.u.). “TTAGATAGATATAAACACATCATTTACCCATTCTAATTCTCGGAGTCACCTAGTGCAG”: the binding signal was 11000 fluorescence intensity (a.u.).

On to “AAAATTGGAAAGTTTGGTTGAAATTGAAACGATGTGACGGCGGAGTCACCTAGTGCAG”, for which the binding signal was 10500 fluorescence intensity (a.u.). The same measure for “TTTTCTGTCTCTTTATCTCTTTAAAATATGTTTATAGCTGCGGAGTCACCTAGTGCAG”: 3190 fluorescence intensity (a.u.); for “TAAATTATAGTGCAATCATGATGTAATTATATTGTAACTTCGGAGTCACCTAGTGCAG”: 15400 fluorescence intensity (a.u.). Consider “CTTGAATGAATGTATGTCAAAGGAACCCATCACCGTTTCTCGGAGTCACCTAGTGCAG”, for which the binding signal is 5020 fluorescence intensity (a.u.). For “ATTATGTAATCAAAATTATGCCTTATTGCCTTTGAAAATTCGGAGTCACCTAGTGCAG”, the binding signal is 3680 fluorescence intensity (a.u.). The same measure for “TCTGCTGATTTTGCTGTTGCCTCTGCTGATTTCAATAATGCGGAGTCACCTAGTGCAG”: 3770 fluorescence intensity (a.u.). The same measure for “GATAGATTGAAACATCAAGGACTAAACTGAGCCTTAGGTGCGGAGTCACCTAGTGCAG”: 45300 fluorescence intensity (a.u.); for “TTAATTATTGTGAGTAATAGATTAACGACACACGTGTTGACGGAGTCACCTAGTGCAG”: 23300 fluorescence intensity (a.u.); for “ATTAAAATTTAAAATTTGACATCAGCTTATAAATATAGGGCGGAGTCACCTAGTGCAG”: 18200 fluorescence intensity (a.u.). As for “AACGGCCCAGATTGATCCCCTTAACTACCGAAATGCCAGACGGAGTCACCTAGTGCAG”, the figure is 5760 fluorescence intensity (a.u.); as for “GTTTTATAATTAGTGTATGTTTAATACTCTAAATTAGTGTCGGAGTCACCTAGTGCAG”, 17800 fluorescence intensity (a.u.); as for “GATGATTTTACTAGCTAGTTAGATCGAGTTACAAACATATCGGAGTCACCTAGTGCAG”, 6740 fluorescence intensity (a.u.). Turning to “TCAAAATTAGCAATTAAGTTCCGAAAATTCCAACAACAAACGGAGTCACCTAGTGCAG”, the binding signal is 26100 fluorescence intensity (a.u.). “TTAATGATTATACAAGATCTAAAATCCTTTTATGTCCTTGCGGAGTCACCTAGTGCAG”: the binding signal is 22200 fluorescence intensity (a.u.). In the case of “CATTAACCTTTTAATGACTAATTATACTATGCCACCCCTCCGGAGTCACCTAGTGCAG”, the binding signal was 9110 fluorescence intensity (a.u.). As for “CTCTCAATTCCGGATAGACATGTTCCACTGCAAAGAAAGCCGGAGTCACCTAGTGCAG”, the figure is 3400 fluorescence intensity (a.u.); as for “GGTTGAAATTATTTATTGTTGGTAAATTAAGTAAAGTCGCCGGAGTCACCTAGTGCAG”, 9510 fluorescence intensity (a.u.); as for “GAGTTGTTTATTTTGCAATAATTAAGATCATCGATCAGATCGGAGTCACCTAGTGCAG”, 3880 fluorescence intensity (a.u.). As for “ATAAATAAACTTATTTTGAGATAATGGTGTAATAGTGTAGCGGAGTCACCTAGTGCAG”, the binding signal is 5300 fluorescence intensity (a.u.). The same measure for “AGAAACCTCGTTAGTGCATAATTAATTAAGTATTAGTTATCGGAGTCACCTAGTGCAG”: 3450 fluorescence intensity (a.u.).
